Reference: PMC6919601, “Identification of Plasmodium dipeptidyl aminopeptidase allosteric inhibitors by high throughput screening” (PLoS ONE, 2019)
Out of some 110,000 compounds screened, about 230 (0.21%) showed an effect of 50% or more. This is one part of the list.

target: DPAP1 (Plasmodium falciparum, UniProt Q8IIJ9); assay: primary screen, percent inhibition; read by cleavage of a fluorogenic dipeptide substrate; higher = more effect of the substance; set-up: species or system P. falciparum D10 trophozoite lysates; single well
Sequence (Q8IIJ9 whole entry, looked up): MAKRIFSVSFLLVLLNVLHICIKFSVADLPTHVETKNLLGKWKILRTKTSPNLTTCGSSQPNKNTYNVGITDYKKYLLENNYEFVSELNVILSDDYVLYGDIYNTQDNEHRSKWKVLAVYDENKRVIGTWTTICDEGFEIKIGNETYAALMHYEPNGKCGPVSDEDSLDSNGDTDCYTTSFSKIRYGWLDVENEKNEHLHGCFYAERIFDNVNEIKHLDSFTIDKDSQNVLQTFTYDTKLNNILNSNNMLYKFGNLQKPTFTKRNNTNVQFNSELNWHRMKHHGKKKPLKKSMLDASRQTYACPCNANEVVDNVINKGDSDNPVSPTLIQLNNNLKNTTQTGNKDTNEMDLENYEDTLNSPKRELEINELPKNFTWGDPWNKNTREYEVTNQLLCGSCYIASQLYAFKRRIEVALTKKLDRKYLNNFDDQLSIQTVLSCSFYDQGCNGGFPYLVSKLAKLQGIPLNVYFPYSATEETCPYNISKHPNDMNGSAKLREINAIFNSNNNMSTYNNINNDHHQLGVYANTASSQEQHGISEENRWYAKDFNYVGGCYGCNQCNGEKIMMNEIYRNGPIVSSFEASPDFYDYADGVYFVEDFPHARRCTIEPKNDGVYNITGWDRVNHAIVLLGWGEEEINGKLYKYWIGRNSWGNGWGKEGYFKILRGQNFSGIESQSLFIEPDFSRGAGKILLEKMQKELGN
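Also: 30 min substrate incubation versus DMSO and 10 µM JCP410 controls.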

Row | SMILES | % Inhibition @ 10 uM [%]
1 | CCOc1cc(C(=O)Nc2c(-c3ccccc3)nc3ccccn23)cc(OCC)c1OCC | -5.77
2 | CCC/N=C/c1c(CCC)nn(-c2ccc(F)cc2)c1O | -5.63
3 | O=C(N/C(=C\c1ccccc1)C(=O)N1CCCCCCC1)c1ccccc1 | 2.46
4 | COc1ccc(NS(=O)(=O)c2cc(C(=O)Nc3ccccc3)ccc2C)cc1 | -1.04
5 | Nc1c(C(=O)C2CC2)sc2nc3c(cc12)CCC3 | 3.72
6 | Cc1ccc(-n2nc3c(=O)n(CCCC(=O)NC4CCCC4)nc(C)c3c2C)cc1 | 1.11
7 | Fc1ccc(C2CC(c3cccc4ccccc34)n3ncnc3N2)cc1 (stereo not shown) | -9.75
8 | Cc1c2cnn(CC(=O)NCCCN3CCOCC3)c(=O)c2c(C)n1Cc1ccccc1 | 4.4
9 | Cc1ccc(C(C)C)c(OCC(=O)Nc2nc(C)cc(C)n2)c1 | 1.15
10 | CCNC(=S)N(CCc1c(C)[nH]c2ccccc12)Cc1cccnc1 | 11.3
11 | C=C(C)Cn1c(CCCNC(=O)c2ccc(F)cc2)nc2ccccc21 | 2.83
12 | COc1ccc(CC(=O)Nc2ccccc2C)cc1OC | 0.583
13 | COc1ccc(-c2cc(-c3ccccc3)nc(SCC(=O)N3CCOCC3)c2C#N)cc1 | 5.24
14 | CC(C)(C)c1cc(/C=N/N=C(\N)c2nonc2N)cc(C(C)(C)C)c1O | 0.561
15 | OC1=C2C(=Nc3ccccc3NC2c2ccc(O)cc2)CC(c2ccccc2)C1 (stereo not shown) | 3.65
16 | O=C(O)c1cc(O)nc2ccc(S(=O)(=O)O)cc12 | -1.99
17 | Cc1ccc(C)c(Oc2coc3cc(OCC(=O)NC4CCCCC4)ccc3c2=O)c1 | 4.85
18 | Cc1cc(C)cc(NC(=O)c2ccc(Br)o2)c1 | -5.92
19 | COCCCNC(=O)c1cc2c(=O)n3cccc(C)c3nc2n1C | 1.52
20 | Cc1ccc(NC2=C(Cl)C(=O)N(c3ccccc3)C2=O)cc1C | 1.57
21 | O=C(CN1N=C(c2ccccc2)CCC1=O)NCCN1CCC(Cc2ccccc2)CC1 | -2.99
22 | COc1ccccc1CNC(=O)Cn1nc(C)n2c(cc3c(OC)cccc32)c1=O | -3.47
23 | CC1=NC2=C(C(=O)CCC2)C(c2cccc(F)c2)/C1=C(\O)OC(C)C (stereo not shown) | 2.79
24 | CN(C)CCNC(=O)Cn1ccc2cc(S(=O)(=O)N3CCCCC3)ccc21 | 2.28
25 | Cc1ccc(C(C)C)c(OCCSc2nc(-c3ccco3)nc3cc(=O)[nH]n23)c1 | -7.1

Row | SMILES | % Inhibition @ 10 uM [%]
26 | COc1cccc(C(=O)NCC2(c3ccc(OC)c(OC)c3)CCCC2)c1 | 0.755
27 | Cc1cc(C)c2c(CC(=O)NC3CCS(=O)(=O)C3)coc2c1 (stereo not shown) | -0.671
28 | CC1=C(c2ccc(Cl)cc2)S(=O)(=O)N=C1NCCC1=CCCCC1 | 6.91
29 | Cc1nn(-c2ccccc2)c(N)c1C(NC(=O)c1ccccc1)(C(F)(F)F)C(F)(F)F | -3.36
30 | CSCCC(NS(=O)(=O)c1ccc2c3c(cccc13)C(=O)N2C)C(=O)O (stereo not shown) | -1.55
31 | CC(=O)NC1(C(C)=O)C(=O)N(C(C)=O)c2ccccc21 (stereo not shown) | 3.96
32 | CCN(CC)c1ccc(CN2CCC(C(N)=O)CC2)cc1 | -8.55
33 | CCc1[nH]nc2c1C(c1c(Cl)cccc1Cl)C(C#N)=C(N)O2 (stereo not shown) | -1.64
34 | O=C(CC(c1ccccc1)c1cc(Br)ccc1O)NCc1cccnc1 (stereo not shown) | -3.34
35 | Clc1ccccc1/C=C/c1nc2ccccc2[nH]1 | -0.256
36 | Cc1cc(C)nc(/N=C(\N)Nc2cc(Cl)ccc2C)n1 | -1.88
37 | CC(=O)NC(CCS(C)(=O)=O)C(=O)Nc1cc(C)on1 (stereo not shown) | -0.396
38 | CC(=O)Nc1ccc(NC(=O)c2ccccc2C(=O)O)cc1 | 4.73
39 | CCOc1ccc(NC2=NC(=O)C(CC(=O)Nc3cccc(C)c3C)S2)cc1 (stereo not shown) | 3.8
40 | O=C(Nc1cccnc1)C(Cc1ccccc1)N1C(=O)C2C3C=CC(C3)C2C1=O (stereo not shown) | -0.551
41 | OCCN1CCN(Cc2ccco2)CC1 | 3.48
42 | Cc1cc(C(=O)NCCN2CCCC2)c2c(C)nn(-c3cccc(Cl)c3C)c2n1 | -3.56
43 | O=C(Nc1ccccc1F)c1ccc(CNS(=O)(=O)c2cccc(C(F)(F)F)c2)cc1 | 1.94
44 | CCCNC(=O)CSc1c(O)nc2ccc(Cl)cc2c1-c1ccccc1 | 3.16
45 | Clc1cccc(/C=N/n2cnnc2)c1Cl | 8.98
46 | COc1cccc(CN(C(=O)c2sc3ccccc3c2Cl)C2CCS(=O)(=O)C2)c1 (stereo not shown) | -4.95
47 | Cn1c(=O)c2sccc2n2c(CCCC(=O)N3CCCCC3)nnc12 | -0.485
48 | Cc1ccc(-c2cc(C(=O)Nc3ccccc3)[nH]n2)cc1 | -4.43
49 | Oc1ccc(CN2CCc3c([nH]c4ccccc34)C2)cc1 | -7.52
50 | COc1ccccc1Nc1nc(NC2CCCCC2)nc(C)c1[N+](=O)[O-] | -1.05

Row | SMILES | % Inhibition @ 10 uM [%]
51 | CC(C)c1ccc(/C=C/C(=O)Nc2ccc(Cl)cc2)cc1 | -3.71
52 | CSC1=NSC2=NC(=O)/C(=C\c3ccc(O)c(O)c3)C(=N)N12 | 6.89
53 | Clc1cccc(C2C=C(c3cccnc3)Nc3nc4ccccc4n32)c1 (stereo not shown) | -1.62
54 | CSc1ccc(C2C3=C(O)CCCC3=NC(C)=C2C(=O)Nc2ccccc2C)cc1 (stereo not shown) | -10.3
55 | CCC1(C)Cc2c(sc3nc(SCC(=O)Nc4ccccc4)nc(N)c23)CO1 (stereo not shown) | 0.606
56 | CC1=NC(c2ccccc2)(c2ccccc2)c2ccccc2O1 | 4.15
57 | O=C(Nc1cccc2c1CCCC2)c1ccco1 | 5.73
58 | Cc1cc(OCC(O)CN2CCCC2)cc(C)c1Cl (stereo not shown) | -0.711
59 | CCOCCCNC(=O)c1ccc2c(c1)ncn2C1CCCC1 | -8.86
60 | Cc1cccn2c(=O)c3cc(S(=O)(=O)c4ccc(Cl)cc4)c(=N)n(Cc4ccco4)c3nc12 | 0.343
61 | O=C(NCC1CCCO1)c1nc(CS(=O)(=O)c2ccccc2)no1 (stereo not shown) | -6.25
62 | CN(CCCNC(=O)COCc1cc(-c2ccc(F)cc2)on1)Cc1ccccc1 | -3.25
63 | O=C(NCCOC12CC3CC(CC(C3)C1)C2)c1cc2c(s1)-c1ccccc1OC2 | 3.45
64 | CCOc1cc(C)c(S(=O)(=O)N2CC(C)OC(C)C2)cc1C (stereo not shown) | -6.44
65 | CN(C)CCN(C)Cc1ccc([N+](=O)[O-])cc1 | 0.247
66 | Oc1nc(N2CCCCCC2)nc2ncn(Cc3ccccc3)c12 | -3.52
67 | CC1(O)N(CCOC23CC4CC(CC(C4)C2)C3)C(=O)OC12CCCCC2 (stereo not shown) | -0.25
68 | CCOC(=O)c1c(C)[nH]c(C)c1S(=O)(=O)N1CCN(C(=O)c2ccco2)CC1 | -4.74
69 | CC1(C)Cc2c(sc3ncn4nc(CSc5nc6ccccc6s5)nc4c23)C(C)(C)N1 | 13.5
70 | CC(C)C[C@H](NC(=O)N1CCCc2ccccc21)C(=O)NCC#N | -6.98
71 | CCOc1ccc(C2NCCc3cc(OC)c(OC)cc32)cc1OC (stereo not shown) | -4.97
72 | CC(=O)c1ccc(-c2nnc(-c3cccs3)o2)cc1 | -5.67
73 | Cc1ccc(C)c(OCC(=O)Nc2cc(C)on2)c1 | 2.46
74 | CCN(CC)c1c(S(=O)(=O)c2ccc(Cl)cc2)cnc2cc3c(cc12)OCCO3 | -1.69
75 | CCCc1c(O)nc2ccc(C)cc2c1C | -6.22

Row | SMILES | % Inhibition @ 10 uM [%]
76 | O=C(COc1cccc2ccccc12)Nc1ccccc1Cl | -3.05
77 | O=C(CSCc1c(Cl)cccc1Cl)N1CCCC1 | -4.6
78 | Cc1cc2oc(=O)cc(C)c2c2occ(-c3ccccc3)c12 | 5.35
79 | O=C(C1=C(O)C(=O)N(c2ncccn2)C1c1cccc(Cl)c1)c1ccco1 (stereo not shown) | 14.8
80 | Fc1ccc(CNCc2ccccn2)cc1 | 6.47
81 | COc1ccc(/C=C(/NC(=O)c2cccc(C)c2)C(=O)Nc2ccc(OC)cc2)cc1 | 0.76
82 | Cc1cc(C)cc(-n2nnc(-c3nc(-c4ccccc4)no3)c2N)c1 | -1.31
83 | Cc1cc2nc(O)c(O)nc2cc1S(=O)(=O)N1CCN(CCOc2ccc(Cl)cc2)CC1 | 52.3
84 | CC(C)/N=C1\SC(CC(=O)Nc2ccc(Cl)cc2Cl)C(=O)N1C(C)C (stereo not shown) | -3.27
85 | CCCCNC(=O)c1cnn2c(C(F)F)cc(-c3ccccc3)nc12 | 4.08
86 | O=C(Cn1nnc2sc3c(c2c1=O)CCCC3)c1cc2ccccc2o1 | 0.758
87 | c1ccc(-c2nc(CN3CCOCC3)cs2)cc1 | -6.07
88 | O=C(c1ccc2c(c1)c(=O)oc1ccccc12)N1CCCCC1 | 0.0539
89 | COCCNC(=O)C(C)n1ncn2cccc2c1=O (stereo not shown) | -4.26
90 | O=C(CCc1cc(Cl)no1)Nc1nccs1 | 4
91 | CCC1=Nc2c(c(=O)[nH]c(=O)n2Cc2ccco2)C(C(F)(F)F)(C(F)(F)F)N1 | -5.23
92 | CCOC(=O)N1CCC(NC(=O)NCc2noc3ccc(C)cc23)CC1 | 0.568
93 | COc1ccccc1NC(=O)CSc1nc2sc3c(c2c(=O)n1C)CCCC3 | -2.68
94 | N#CCNC(=O)C(CCc1ccc(F)cc1F)NC(=O)OCc1ccccc1 (stereo not shown) | -3.48
95 | O=C1CC(N2CCSCC2)C(=O)N1c1ccc(N2C(=O)CC(N3CCSCC3)C2=O)cc1 (stereo not shown) | -4.39
96 | COc1cc(/C=C2/NC(=O)N(c3ccc(Cl)cc3)C2=O)cc2c1OCO2 | -4.05
97 | COCC(C)NC(=O)CN1C(=O)c2ccccc2C1=O (stereo not shown) | -1.6
98 | O=C1C2CC=C(Cl)CC2C(=O)N1Cc1ccccc1 (stereo not shown) | 0.408
99 | COc1ccc2oc(=O)c(-c3nc(-c4nonc4N)no3)cc2c1 | 1.4
100 | COc1cc(Cl)c(S(=O)(=O)N2CCN(c3ccccc3OC)CC2)cc1Cl | 4.25
